Data published in article PMC9472757.
Results are given in words; binding and its absence hold for the method and conditions named. Binding seen in cells or lysates may run through a third protein. Some results given as binding are weak or reduced against the parent protein; the word gives no strength.

Assays:
[1] = target: Flag-ORF4b (MERS-CoV ORF4b protein, Flag-tagged) (MERS-CoV) (UniProt K9N643); test: co-IP
Flag-UBR5 (human) = Flag-UBR5 (human) (UniProt O95071); test: co-IP

Substance | binding [1] | binding (Flag-UBR5 (human))
UBR5 (ubiquitin protein ligase E3 component N-recognin 5), endogenous (from UniProt O95071 1-2799) (enzyme) | binds | –
HUWE1 (from UniProt Q7Z6Z7 1-4374) (enzyme) | no binding | –
HA-ORF4b (MERS-CoV ORF4b protein, HA-tagged) (from UniProt K9N643 1-246) | – | binds
UBR5 T1 (aa 1 to 1264), MYC-tagged (from UniProt O95071 1-1264) (domain or fragment) | no binding | –
UBR5 T2 (aa 1265 to 2463), MYC-tagged (from UniProt O95071 1265-2463) (domain or fragment) | no binding | –
UBR5 T3 (aa 2464 to 2799), containing the HECT domain, MYC-tagged (from UniProt O95071 2464-2799) (domain or fragment) | binds | –
